Here are results for 46 molecules from paper PMC4336329 (PLoS ONE, 2015).

About 2,200 (0.71%) of roughly 310,000 compounds showed an effect of 50% or more. The effect is printed as a negative number. The list shows a part of the results.

Chain of human ether-à-go-go-related gene (hERG) potassium channel (Q12809 whole entry, looked up): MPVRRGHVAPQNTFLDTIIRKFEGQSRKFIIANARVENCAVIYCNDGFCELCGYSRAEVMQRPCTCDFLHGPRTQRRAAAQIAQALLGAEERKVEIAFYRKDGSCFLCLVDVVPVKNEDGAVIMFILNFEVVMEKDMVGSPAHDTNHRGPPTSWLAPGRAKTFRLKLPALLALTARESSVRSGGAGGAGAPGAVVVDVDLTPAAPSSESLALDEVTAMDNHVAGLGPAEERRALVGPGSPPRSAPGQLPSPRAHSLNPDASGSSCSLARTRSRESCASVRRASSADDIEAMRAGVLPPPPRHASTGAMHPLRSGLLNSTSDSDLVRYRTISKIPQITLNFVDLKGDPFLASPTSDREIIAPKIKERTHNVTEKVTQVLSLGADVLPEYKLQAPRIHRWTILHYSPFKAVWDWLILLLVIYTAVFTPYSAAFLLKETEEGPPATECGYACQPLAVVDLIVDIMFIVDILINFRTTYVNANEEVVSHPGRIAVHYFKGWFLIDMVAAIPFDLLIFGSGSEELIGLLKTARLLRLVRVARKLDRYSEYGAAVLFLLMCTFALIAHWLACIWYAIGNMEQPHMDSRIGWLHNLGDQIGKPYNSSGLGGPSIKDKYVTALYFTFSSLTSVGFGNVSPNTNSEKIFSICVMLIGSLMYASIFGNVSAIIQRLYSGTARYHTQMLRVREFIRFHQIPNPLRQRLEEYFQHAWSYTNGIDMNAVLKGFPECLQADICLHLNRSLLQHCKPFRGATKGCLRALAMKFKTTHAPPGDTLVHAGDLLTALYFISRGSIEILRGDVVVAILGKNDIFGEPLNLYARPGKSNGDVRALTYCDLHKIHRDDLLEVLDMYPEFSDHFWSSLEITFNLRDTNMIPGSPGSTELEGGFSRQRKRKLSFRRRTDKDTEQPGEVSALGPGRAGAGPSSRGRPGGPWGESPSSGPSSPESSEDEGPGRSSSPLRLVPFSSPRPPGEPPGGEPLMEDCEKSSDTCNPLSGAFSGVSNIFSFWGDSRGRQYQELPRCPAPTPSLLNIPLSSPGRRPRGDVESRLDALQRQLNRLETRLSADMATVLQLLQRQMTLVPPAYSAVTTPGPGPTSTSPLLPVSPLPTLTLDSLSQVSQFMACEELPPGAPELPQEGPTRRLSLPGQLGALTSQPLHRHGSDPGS

This assay addresses human ether-à-go-go-related gene (hERG) potassium channel (human, UniProt Q12809). The assay can be described thus: primary screen, population patch clamp on CHO cells stably expressing hERG.
Turning to `COc1cccc(NC(=O)CN(C)C(=O)c2cc(C3CC3)nn2-c2ccccc2)c1`, the “hERG current change (%, negative = inhibition) at 1uM” value is listed as 8.88%.

On to `O=C(CSc1nc2ccccc2c(=O)n1Cc1ccco1)c1ccc(F)cc1`, for which the “hERG current change (%, negative = inhibition) at 1uM” value turned out to be 12.6%.

On to `C=CCNc1nc(C(=O)OCC(=O)c2ccccc2)cs1`, for which the “hERG current change (%, negative = inhibition) at 1uM” value turned out to be 7.88%.

For the molecule `COCCCNc1nc2cc(OC)c(OC)cc2c2nc(-c3ccccc3)nn12`, the “hERG current change (%, negative = inhibition) at 1uM” value turned out to be 18.4%.

For the molecule `Cc1ccc(-c2csc3ncn(CC(=O)N4CCOCC4)c(=O)c23)cc1`, the “hERG current change (%, negative = inhibition) at 1uM” value is 4.32%.

Regarding `O=C(c1ccccc1)N1CCc2ccccc21`, the “hERG current change (%, negative = inhibition) at 1uM” value is listed as 5.7%.

Consider `Cc1sc2nc(C(C)C)nc(SCC(=O)NC3CC3)c2c1C`, for which the “hERG current change (%, negative = inhibition) at 1uM” value is recorded as 14.5%.

Regarding `CC(C)Nc1nc(NC(C)C)nc(N(C)N)n1`, the “hERG current change (%, negative = inhibition) at 1uM” value is recorded as 3.03%.

Take `COc1cc(CNc2ccc(N3CCOCC3)c(C(=O)O)c2)ccc1OCC(N)=O`: the “hERG current change (%, negative = inhibition) at 1uM” value is -5.34%.

For `CC[C@@]1(O)C(=O)OCc2c1cc1n(c2=O)Cc2cc3c(N)cccc3nc2-1`, the “hERG current change (%, negative = inhibition) at 1uM” value is listed as 2.74%.

On to `CCOC(=O)c1c(NC(NC(=O)CF)C(Cl)(Cl)Cl)sc2c1CCCC2` (stereo not shown), for which the “hERG current change (%, negative = inhibition) at 1uM” value is 1.03%.

`O=C1COc2ccc(C(=O)COC(=O)c3ccc(Cl)cc3[N+](=O)[O-])cc2N1`: the “hERG current change (%, negative = inhibition) at 1uM” value is reported as -11.6%.

For `COc1ccc(CN2CCN(C(=O)c3cccs3)CC2)cc1Br`, the “hERG current change (%, negative = inhibition) at 1uM” value is on record as -10.9%.

Turning to `COc1ccc(NC(=O)CCCc2ccc(OC)c(C)c2)cc1`, the “hERG current change (%, negative = inhibition) at 1uM” value is given as 2.91%.

In the case of `CCc1nnc(NC(=O)CSc2nncc(=O)n2N)s1`, the “hERG current change (%, negative = inhibition) at 1uM” value was 16.4%.

Consider `CC1CCCCN1C(=O)CSc1nnc(CSc2ncccn2)n1C` (stereo not shown), for which the “hERG current change (%, negative = inhibition) at 1uM” value was 17.1%.

Regarding `CN(C)NC(=S)NC1CC2CCC1C2` (stereo not shown), the “hERG current change (%, negative = inhibition) at 1uM” value was determined as 4.86%.

For `O=C(NCC(F)(F)F)Nc1ccccn1`, the “hERG current change (%, negative = inhibition) at 1uM” value worked out at 0.0705%.

Consider `C/C(Cl)=C\COc1cc(C)nc2c(Br)cccc12`, for which the “hERG current change (%, negative = inhibition) at 1uM” value amounted to 13%.

With `COc1ccccc1NC(=O)CSc1nnc(CCC(=O)Nc2ccccc2F)n1C`, the “hERG current change (%, negative = inhibition) at 1uM” value was 17.4%.

Take `Cl.O=C(CNCCO)NC12CC3CC(CC(C3)C1)C2`: the “hERG current change (%, negative = inhibition) at 1uM” value is recorded as 12.8%.

Consider `CCC(C)(C)NC(=O)CN(C(=O)c1snc(C(N)=O)c1N)c1ccc2nc(C)sc2c1`, for which the “hERG current change (%, negative = inhibition) at 1uM” value was 12%.

Regarding `COc1ccc(CCn2c(NCc3ccco3)nc3c2c(=O)[nH]c(=O)n3C)cc1`, the “hERG current change (%, negative = inhibition) at 1uM” value worked out at 16.6%.

As for `CC(C(=O)OCC(=O)Nc1cccc(S(=O)(=O)N(C)C)c1)N1C(=O)c2ccccc2C1=O` (stereo not shown), the “hERG current change (%, negative = inhibition) at 1uM” value turned out to be 7.02%.

For the molecule `COCC(=O)N(Cc1nc2sc(C)c(C)c2c(=O)[nH]1)C1CCCCC1`, the “hERG current change (%, negative = inhibition) at 1uM” value is 4.45%.

In the case of `Cc1ccc(S(=O)(=O)NCC(=O)OCC(=O)N2CCN(C(=O)c3ccco3)CC2)cc1C`, the “hERG current change (%, negative = inhibition) at 1uM” value is -5.38%.

For `CC(OC(=O)CCc1c[nH]c2ccccc12)C(=O)c1ccccc1` (stereo not shown), the “hERG current change (%, negative = inhibition) at 1uM” value is listed as 6.37%.

As to `CCCOc1cccc(C(=O)N/N=C/c2ccoc2)c1`, the “hERG current change (%, negative = inhibition) at 1uM” value was found to be 9.43%.

On to `COc1ccc(OC)c(/C=N/NC(=O)c2[nH]ncc2Br)c1`, for which the “hERG current change (%, negative = inhibition) at 1uM” value is listed as 7.79%.

On to `O=S(=O)(c1ccccc1Cl)N1CCC(O)(c2ccc3c(c2)OCO3)CC1`, for which the “hERG current change (%, negative = inhibition) at 1uM” value is on record as 4.94%.

For `O=C(N/N=C/c1ccncc1)c1cccc(S(=O)(=O)Nc2ccc(Cl)cc2)c1`, the “hERG current change (%, negative = inhibition) at 1uM” value was 7.53%.

On to `Cc1ccc(OCCNC(=O)CCc2nc3sc4c(c3c(=O)[nH]2)CCCC4)cc1`, for which the “hERG current change (%, negative = inhibition) at 1uM” value is 14.6%.

Regarding `C/C=C/c1ccc(OCC(=O)Nc2ccc(OC)c(OC)c2)c(OC)c1`, the “hERG current change (%, negative = inhibition) at 1uM” value is 9.62%.

Regarding `Fc1ccc(CSc2nnc(-c3ccncc3)o2)cc1`, the “hERG current change (%, negative = inhibition) at 1uM” value stood at 16.5%.

With `CC(=O)c1ccc2oc3ccccc3c(=O)c2c1`, the “hERG current change (%, negative = inhibition) at 1uM” value came to 8.94%.

Consider `O=C(O)c1ccccc1C(=O)Nc1cc(-c2ccccc2)[nH]n1`, for which the “hERG current change (%, negative = inhibition) at 1uM” value is 11.1%.

As to `Cc1ccc(-c2nc(CSCC(=O)Nc3cc(C)on3)c(C)o2)cc1`, the “hERG current change (%, negative = inhibition) at 1uM” value is 16%.

`CN(C)S(=O)(=O)N(CC(=O)N1CCN(c2ccccc2F)CC1)c1ccccc1`: the “hERG current change (%, negative = inhibition) at 1uM” value was 8.68%.

As to `CC(=S)/C=C1\Sc2ccccc2N1C`, the “hERG current change (%, negative = inhibition) at 1uM” value turned out to be 5.22%.

Turning to `COC(=O)Cn1nc(-c2ccc(C)cc2)c2ccccc2c1=O`, the “hERG current change (%, negative = inhibition) at 1uM” value is recorded as -0.0939%.

On to `COc1ccc(CCNC(=O)CCc2cn(C)c3ccccc23)c(OC)c1OC`, for which the “hERG current change (%, negative = inhibition) at 1uM” value is 4.67%.

Turning to `COc1ccc(N(CC(=O)NCCSC2CCCCC2)S(=O)(=O)c2ccc(C)cc2)cc1`, the “hERG current change (%, negative = inhibition) at 1uM” value is 11.6%.

With `Cc1ccc(S(=O)(=O)c2c[nH]c3ccc(C)cc3c2=O)cc1`, the “hERG current change (%, negative = inhibition) at 1uM” value was determined as 14.7%.

Take `O=C(Nc1ccc(S(=O)(=O)N2CCOCC2)cc1)c1ccc(F)cc1`: the “hERG current change (%, negative = inhibition) at 1uM” value was 6.1%.

For `Cc1cc(C=C(C#N)C#N)c(C)n1-c1ccccc1`, the “hERG current change (%, negative = inhibition) at 1uM” value is 6.19%.

Turning to `CC1Cc2ccccc2N1C(=O)c1ccc2snnc2c1` (stereo not shown), the “hERG current change (%, negative = inhibition) at 1uM” value is given as 0.715%.
